Assay results: the supplement of paper PMC13016719
MIC of multidrug-resistant clinical P. aeruginosa isolates by reference broth microdilution, Sensititre or Phoenix panel; µg/mL of the β-lactam, with the inhibitor fixed at 4 µg/mL where named; higher = less susceptible; each panel covers only a few steps. No active / inactive call per row; the paper applies CLSI M100 breakpoints. The methods often differ by one or more steps on the same isolate. Several isolates can come from one patient. PDC is the chromosomal AmpC β-lactamase of the species; the number names its allele. Isolates are numbered anew.

Legend:
Experiment in all cases: Reference broth microdilution (once per isolate) and two commercial panels; inhibitor fixed at 4 µg/mL.
ceftazidime = compound: CC(C)(O/N=C(\C(=O)N[C@@H]1C(=O)N2C(C(=O)[O-])=C(C[n+]3ccccc3)CS[C@H]12)c1csc(N)n1)C(=O)O [ceftazidime] (with: avibactam 4 µg/mL)
imipenem = compound: C[C@@H](O)[C@H]1C(=O)N2C(C(=O)O)=C(SCCNC=N)C[C@H]12 [imipenem]; conditions: reference broth microdilution
ceftolozane = compound: Cn1c(N)c(NC(=O)NCCN)c[n+]1CC1=C(C(=O)[O-])N2C(=O)[C@@H](NC(=O)/C(=N\OC(C)(C)C(=O)O)c3nsc(N)n3)[C@H]2SC1 [ceftolozane] (with: tazobactam 4 µg/mL)

Test System	MIC (ceftazidime; BD Phoenix panel)	MIC (ceftazidime; reference broth microdilution)	MIC (imipenem)	MIC (ceftolozane; BD Phoenix panel)	MIC (ceftolozane; reference broth microdilution)	MIC (ceftazidime; Sensititre panel)	MIC (ceftolozane; Sensititre panel)
Pseudomonas aeruginosa isolate 136 (PDC allele: blaPDC-34)	2 µg/mL	≤ 4 µg/mL	8 µg/mL	2 µg/mL	2 µg/mL		
Pseudomonas aeruginosa isolate 92 (PDC allele: blaPDC-8)	4 µg/mL	≤ 4 µg/mL	8 µg/mL	≤ 1 µg/mL	≤ 1 µg/mL	≤ 4 µg/mL	≤ 1 µg/mL
Pseudomonas aeruginosa isolate 106 (PDC allele: blaPDC-3)	2 µg/mL	≤ 4 µg/mL	4 µg/mL	2 µg/mL	2 µg/mL	≤ 4 µg/mL	2 µg/mL
Pseudomonas aeruginosa isolate 117 (PDC allele: blaPDC-24)	4 µg/mL	16 µg/mL	8 µg/mL	4 µg/mL	8 µg/mL	8 µg/mL	8 µg/mL
Pseudomonas aeruginosa isolate 166 (PDC allele: blaPDC-3)	8 µg/mL	≥ 32 µg/mL	2 µg/mL	2 µg/mL	4 µg/mL		
Pseudomonas aeruginosa isolate 64 (PDC allele: blaPDC-6)	8 µg/mL	≥ 32 µg/mL	> 8 µg/mL	4 µg/mL	8 µg/mL		
Pseudomonas aeruginosa isolate 69 (PDC allele: blaPDC-34)	2 µg/mL	8 µg/mL	4 µg/mL	≤ 1 µg/mL	4 µg/mL	≤ 4 µg/mL	8 µg/mL
Pseudomonas aeruginosa isolate 70 (PDC allele: blaPDC-364)	8 µg/mL	8 µg/mL	≤ 1 µg/mL	≤ 1 µg/mL	2 µg/mL		
Pseudomonas aeruginosa isolate 75 (PDC allele: blaPDC-5)	> 8 µg/mL	≥ 32 µg/mL	8 µg/mL	4 µg/mL	8 µg/mL	> 16 µg/mL	8 µg/mL
Pseudomonas aeruginosa isolate 34 (PDC allele: blaPDC-8)	2 µg/mL	8 µg/mL	> 8 µg/mL	2 µg/mL	4 µg/mL	≤ 4 µg/mL	2 µg/mL
Pseudomonas aeruginosa isolate 81 (PDC allele: blaPDC-5)	> 8 µg/mL	16 µg/mL	2 µg/mL	2 µg/mL	≤ 1 µg/mL		
Pseudomonas aeruginosa isolate 109 (PDC allele: blaPDC-3)	4 µg/mL	16 µg/mL	≤ 1 µg/mL	≤ 1 µg/mL	4 µg/mL	16 µg/mL	4 µg/mL
Pseudomonas aeruginosa isolate 40 (PDC allele: blaPDC-1)	> 8 µg/mL	≥ 32 µg/mL	2 µg/mL	4 µg/mL	8 µg/mL	> 16 µg/mL	8 µg/mL
Pseudomonas aeruginosa isolate 120 (PDC allele: blaPDC-3)	8 µg/mL	8 µg/mL	> 8 µg/mL	4 µg/mL	4 µg/mL	8 µg/mL	4 µg/mL
Pseudomonas aeruginosa isolate 54 (PDC allele: blaPDC-8)	4 µg/mL	≤ 4 µg/mL	≤ 1 µg/mL	≤ 1 µg/mL	≤ 1 µg/mL		
Pseudomonas aeruginosa isolate 78 (PDC allele: blaPDC-53)	4 µg/mL	≤ 4 µg/mL		≤ 1 µg/mL	2 µg/mL		
Pseudomonas aeruginosa isolate 167 (PDC allele: blaPDC-8)	> 8 µg/mL	≥ 32 µg/mL	> 8 µg/mL	4 µg/mL	8 µg/mL		
Pseudomonas aeruginosa isolate 146 (PDC allele: blaPDC-3)	> 8 µg/mL	16 µg/mL	4 µg/mL	2 µg/mL	2 µg/mL	16 µg/mL	2 µg/mL
Pseudomonas aeruginosa isolate 140 (ESBL gene: blaPAC-1, PDC allele: blaPDC-36)	> 8 µg/mL			> 8 µg/mL			
Pseudomonas aeruginosa isolate 95 (PDC allele: blaPDC-8)	> 8 µg/mL	16 µg/mL	2 µg/mL	2 µg/mL	2 µg/mL	16 µg/mL	2 µg/mL

Test System	MIC (ceftazidime; BD Phoenix panel)	MIC (ceftazidime; reference broth microdilution)	MIC (imipenem)	MIC (ceftolozane; BD Phoenix panel)	MIC (ceftolozane; reference broth microdilution)	MIC (ceftazidime; Sensititre panel)	MIC (ceftolozane; Sensititre panel)
Pseudomonas aeruginosa isolate 138 (PDC allele: blaPDC-1)	4 µg/mL	≤ 4 µg/mL	> 8 µg/mL	2 µg/mL	≤ 1 µg/mL	≤ 4 µg/mL	2 µg/mL
Pseudomonas aeruginosa isolate 71 (PDC allele: blaPDC-30)	≤ 0.25 µg/mL	8 µg/mL	> 8 µg/mL	≤ 1 µg/mL	4 µg/mL	8 µg/mL	4 µg/mL
Pseudomonas aeruginosa isolate 156 (PDC allele: blaPDC-266)	8 µg/mL	8 µg/mL	4 µg/mL	4 µg/mL	8 µg/mL	8 µg/mL	8 µg/mL
Pseudomonas aeruginosa isolate 1 (PDC allele: blaPDC-1)	4 µg/mL	≤ 4 µg/mL	4 µg/mL	2 µg/mL	2 µg/mL	≤ 4 µg/mL	2 µg/mL
Pseudomonas aeruginosa isolate 46 (PDC allele: blaPDC-5)	> 8 µg/mL	8 µg/mL	≤ 1 µg/mL	≤ 1 µg/mL	2 µg/mL		
Pseudomonas aeruginosa isolate 121 (PDC allele: blaPDC-8)	8 µg/mL	8 µg/mL	> 8 µg/mL	≤ 1 µg/mL	4 µg/mL		
Pseudomonas aeruginosa isolate 53 (PDC allele: blaPDC-364)	8 µg/mL			≤ 1 µg/mL			
Pseudomonas aeruginosa isolate 160 (PDC allele: blaPDC-1, ftsI change: ftsI_R504C)	> 8 µg/mL	≥ 32 µg/mL	> 8 µg/mL	2 µg/mL	4 µg/mL		
Pseudomonas aeruginosa isolate 179 (PDC allele: blaPDC-8)	2 µg/mL	≤ 4 µg/mL	≤ 1 µg/mL	≤ 1 µg/mL	≤ 1 µg/mL		
Pseudomonas aeruginosa isolate 148 (PDC allele: blaPDC-30)	> 8 µg/mL	16 µg/mL	≤ 1 µg/mL	2 µg/mL	4 µg/mL	> 16 µg/mL	8 µg/mL
Pseudomonas aeruginosa isolate 2 (PDC allele: blaPDC-5)	8 µg/mL	≤ 4 µg/mL		2 µg/mL	2 µg/mL		
Pseudomonas aeruginosa isolate 30 (PDC allele: blaPDC-3)	4 µg/mL	8 µg/mL	≤ 1 µg/mL	2 µg/mL	4 µg/mL	≤ 4 µg/mL	4 µg/mL
Pseudomonas aeruginosa isolate 48 (PDC allele: blaPDC-41)	4 µg/mL	8 µg/mL	> 8 µg/mL	8 µg/mL	8 µg/mL		
Pseudomonas aeruginosa isolate 178 (ESBL gene: blaPAC-1, PDC allele: blaPDC-36)	> 8 µg/mL	≥ 32 µg/mL	> 8 µg/mL	> 8 µg/mL	≥ 16 µg/mL		
Pseudomonas aeruginosa isolate 63 (PDC allele: blaPDC-37)	8 µg/mL	16 µg/mL	> 8 µg/mL	2 µg/mL	8 µg/mL		
Pseudomonas aeruginosa isolate 86 (PDC allele: blaPDC-1)	1 µg/mL	≤ 4 µg/mL	8 µg/mL	≤ 1 µg/mL	≤ 1 µg/mL	≤ 4 µg/mL	2 µg/mL
Pseudomonas aeruginosa isolate 144 (PDC allele: blaPDC-3)	8 µg/mL	8 µg/mL	≤ 1 µg/mL	> 8 µg/mL	≥ 16 µg/mL		
Pseudomonas aeruginosa isolate 28 (ESBL gene: blaPAC-1, PDC allele: blaPDC-36)	> 8 µg/mL	≥ 32 µg/mL	> 8 µg/mL	> 8 µg/mL	≥ 16 µg/mL		
Pseudomonas aeruginosa isolate 14 (PDC allele: blaPDC-1, ftsI change: ftsI_R504C)	> 8 µg/mL	≥ 32 µg/mL	> 8 µg/mL	2 µg/mL	≥ 16 µg/mL		
Pseudomonas aeruginosa isolate 23 (PDC allele: blaPDC-8)	2 µg/mL	≤ 4 µg/mL	> 8 µg/mL	≤ 1 µg/mL	2 µg/mL		

Test System	MIC (ceftazidime; BD Phoenix panel)	MIC (ceftazidime; reference broth microdilution)	MIC (imipenem)	MIC (ceftolozane; BD Phoenix panel)	MIC (ceftolozane; reference broth microdilution)	MIC (ceftazidime; Sensititre panel)	MIC (ceftolozane; Sensititre panel)
Pseudomonas aeruginosa isolate 154 (PDC allele: blaPDC-3)	8 µg/mL	8 µg/mL	> 8 µg/mL	≤ 1 µg/mL	≤ 1 µg/mL		
Pseudomonas aeruginosa isolate 83 (PDC allele: blaPDC-34)	4 µg/mL	≤ 4 µg/mL	≤ 1 µg/mL	≤ 1 µg/mL	≤ 1 µg/mL		
Pseudomonas aeruginosa isolate 66 (PDC allele: blaPDC-1)	2 µg/mL	≤ 4 µg/mL	> 8 µg/mL	2 µg/mL	≤ 1 µg/mL		
Pseudomonas aeruginosa isolate 89 (PDC allele: blaPDC-3)	≤ 0.25 µg/mL	8 µg/mL	≤ 1 µg/mL	≤ 1 µg/mL	4 µg/mL	≤ 4 µg/mL	≤ 1 µg/mL
Pseudomonas aeruginosa isolate 49 (PDC allele: blaPDC-3)	4 µg/mL	8 µg/mL	2 µg/mL	≤ 1 µg/mL	4 µg/mL	8 µg/mL	2 µg/mL
Pseudomonas aeruginosa isolate 68 (PDC allele: blaPDC-34)	4 µg/mL	≤ 4 µg/mL		≤ 1 µg/mL	≤ 1 µg/mL		
Pseudomonas aeruginosa isolate 128 (PDC allele: blaPDC-16)	4 µg/mL			≤ 1 µg/mL			
Pseudomonas aeruginosa isolate 87 (PDC allele: blaPDC-1)	> 8 µg/mL	> 16 µg/mL		≤ 1 µg/mL	4 µg/mL		
Pseudomonas aeruginosa isolate 65 (PDC allele: blaPDC-8)	8 µg/mL	16 µg/mL		≤ 1 µg/mL	4 µg/mL		
Pseudomonas aeruginosa isolate 130 (PDC allele: blaPDC-37)	8 µg/mL	16 µg/mL		2 µg/mL	4 µg/mL		
Pseudomonas aeruginosa isolate 25 (PDC allele: blaPDC-30)	4 µg/mL	≤ 4 µg/mL		≤ 1 µg/mL	≤ 1 µg/mL		
Pseudomonas aeruginosa isolate 8 (PDC allele: blaPDC-1)	> 8 µg/mL	≥ 32 µg/mL		2 µg/mL	4 µg/mL		
Pseudomonas aeruginosa isolate 176 (PDC allele: blaPDC-36)	1 µg/mL	≤ 4 µg/mL		≤ 1 µg/mL	≤ 1 µg/mL	≤ 4 µg/mL	≤ 1 µg/mL
Pseudomonas aeruginosa isolate 152 (PDC allele: blaPDC-41)	4 µg/mL	≤ 4 µg/mL		4 µg/mL	8 µg/mL		
Pseudomonas aeruginosa isolate 163 (PDC allele: blaPDC-5)	2 µg/mL	≤ 4 µg/mL		2 µg/mL	4 µg/mL		
Pseudomonas aeruginosa isolate 94 (PDC allele: blaPDC-6)	4 µg/mL	≤ 4 µg/mL		2 µg/mL	≤ 1 µg/mL		
Pseudomonas aeruginosa isolate 36 (PDC allele: blaPDC-3)	8 µg/mL	8 µg/mL		≤ 1 µg/mL	≤ 1 µg/mL	8 µg/mL	≤ 1 µg/mL
Pseudomonas aeruginosa isolate 13 (PDC allele: blaPDC-31)	8 µg/mL	8 µg/mL		≤ 1 µg/mL	≤ 1 µg/mL		
Pseudomonas aeruginosa isolate 96 (PDC allele: blaPDC-6)	8 µg/mL	16 µg/mL		4 µg/mL	4 µg/mL		
Pseudomonas aeruginosa isolate 45 (PDC allele: blaPDC-1)	2 µg/mL	≤ 4 µg/mL		≤ 1 µg/mL	≤ 1 µg/mL		
